T1: CD20 on Raji or Daudi cells (UniProt P11836 1-297, limits assumed)
T1 construct: whole, on cells
T1 sequence (looked up): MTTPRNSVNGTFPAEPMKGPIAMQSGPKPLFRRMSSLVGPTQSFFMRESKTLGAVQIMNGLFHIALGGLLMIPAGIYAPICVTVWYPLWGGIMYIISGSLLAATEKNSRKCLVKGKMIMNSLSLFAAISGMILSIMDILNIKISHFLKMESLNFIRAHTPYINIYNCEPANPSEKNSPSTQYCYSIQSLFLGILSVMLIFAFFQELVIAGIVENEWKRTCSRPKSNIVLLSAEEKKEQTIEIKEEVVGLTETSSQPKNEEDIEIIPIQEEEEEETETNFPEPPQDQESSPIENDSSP

B1: CD20 binding sequence 3 (designed binder)
chain: CLPGEFRCRGTSICIPPSWVCDGVDDCGDGSDEALEHCGDSHILPFSTPGPST
B2: CD20 binding sequence 5 (designed binder)
chain: CLPGEFRCRGTSICIPPSWVCDGVDDCGDGSDEALEHCGDSHILPFSTPGPST

Target: T1, CD20 on Raji or Daudi cells
Assay: phage clone on Raji or Daudi cells with or without 1 mg/mL Rituxan

| Binder | binding result |
| --- | --- |
| B1 | binds |
| B2 | binds |
